Among all 390,000 compounds or so, about 360 (0.092%) were called active. The inconclusive results got no clear call from the source; some entries with a clear call stand among them for comparison. The call rests on the fitted dose curve; in most records, active means well fitted inhibition curve with a large enough effect; inconclusive means small, poorly fitted or top-dose-only effect; inactive means no such curve, though single readings can be large or run the other way. A potency beside an inconclusive call is a rough fit, not a confirmed value.
Each compound was assayed against Isocitrate dehydrogenase [NADP] cytoplasmic (Homo sapiens) (UniProt O75874) (assay: qHTS for Inhibitors of mutant isocitrate dehydrogenase 1 (IDH1): qHTS). Conditions: IDH1-R132H enzyme, NADPH consumption, diaphorase/resazurin fluorescence; series mostly up to 76.6 µM.
In short: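 IDH1-R132H (0.5 ug/mL) preincubated 30 min with compound, then NADPH (0.016 mM) and alpha-KG (2 mM) added; 80 min at RT, pH 7.5. Remaining NADPH coupled via diaphorase/resazurin to fluorescence (540/590 nm); concentration-response curves normalized to no-enzyme control.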
For Cc1cc(=O)oc2c1c(C)nn2-c1nn[nH]n1, the Potency was “inactive”.
COc1cc(C2C3CN(C)CC=C3C(C#N)=C(N)C2(C#N)C#N)ccc1OC(C)C (stereo not drawn) was tested, and the Potency was inconclusive: 14.7 µM [inhibitor, single point].
With Cc1cccc(Nc2nc(N)c([N+](=O)[O-])c(N3CC(C)CC(C)C3)n2)c1 (stereo not drawn) the Potency was inconclusive: 44.7 µM [inhibitor, partial curve, poor fit].
With CN(Cc1ccc(OCC(O)CN2CCCCC2)cc1)Cc1ccnc2ccccc12 (stereo not drawn) the Potency was “inactive”.
COc1ccc(C(=O)N/C(=C\c2cc(OC)c(OC)cc2[N+](=O)[O-])C(=O)NCCO)cc1 was tested, and the Potency was “inactive”.
CC(C)=CCC/C(C)=C/CNC(=O)C[C@H]1C[C@H](C(=O)N2CCCCC2)[C@@]2(C)c3[nH]c4cc(CCC(=O)N(C)C)ccc4c3CCN2C1=O was tested, and the Potency was inconclusive: 39.8 µM [inhibitor, partial curve].
For N=C1/C(=C\c2coc3ccccc3c2=O)C(=O)N=C2SC(c3ccncc3)=NN12, the Potency was inconclusive: 58.5 µM [inhibitor, single point].
Fc1ccc(Nc2nc(NCc3ccco3)c3ccccc3n2)cc1 was tested, and the Potency was inconclusive: 58.5 µM [inhibitor, partial curve].
In the case of COc1cc(-c2nc3c(c(C)nn3-c3ccccc3)c3cc(OC)c(OC)cc23)ccc1O, the Potency is reported as inconclusive: 29.3 µM [inhibitor, full curve].
In the case of CC(C)c1ccc(S(=O)(=O)c2nnn3c2nc(N2CCCCC2)c2sccc23)cc1, the Potency is reported as inconclusive: 70.8 µM [inhibitor, single point].
COc1ccccc1C(=O)Nc1nnc(-c2ccc(F)cc2)o1 was tested, and the Potency was “inactive”.
In the case of O=S(=O)(NCCCCCNS(=O)(=O)c1ccccc1)c1ccccc1, the Potency is reported as “inactive”.
O=C(CCS(=O)(=O)c1cccs1)Nc1ccc(C(=O)Nc2ccccc2F)cc1 was tested, and the Potency was inconclusive: 50.1 µM [inhibitor, single point].
With COc1ccccc1Oc1c(C)oc2cc(OC(=O)c3ccco3)ccc2c1=O the Potency was inconclusive: 58.5 µM [inhibitor, single point].
In the case of COc1cccc(OC)c1C(=O)Nc1nc2cc3c(cc2s1)OCO3, the Potency is reported as “inactive”.
For Cc1ccccc1-n1c(SCc2ccc(Cl)cc2)nc2[nH]ncc2c1=O, the Potency was inconclusive: 44.7 µM [inhibitor, partial curve, poor fit].
In the case of COc1nc(N(c2ccccc2)c2ccccc2)nc(-n2ccnc2)n1, the Potency is reported as inconclusive: 36.9 µM [inhibitor, partial curve, poor fit].
With O=C(O)c1ccccc1NS(=O)(=O)c1ccc(N/N=C/c2cccc(O)c2O)c([N+](=O)[O-])c1 the Potency was active: 41.4 µM.
CC(=O)c1cccc(N(C(=O)c2ccco2)C(C(=O)NC2CCCC2)c2ccccc2F)c1 (stereo not drawn) was tested, and the Potency was active: 23.3 µM.
COc1ccc(NC(=O)CSc2nc(-c3cccs3)cc(C(F)(F)F)n2)cc1OC was tested, and the Potency was inconclusive: 70.8 µM [inhibitor, single point].
In the case of C=CCn1c(SCc2ccc(Cl)cc2)nc2cc(C(=O)N3CCC(C(N)=O)CC3)ccc2c1=O, the Potency is reported as inconclusive: 58.5 µM [inhibitor, single point].
Cc1cc(C)c(C)c(S(=O)(=O)Nc2cccc(S(=O)(=O)Nc3ccccc3C(=O)O)c2)c1C was tested, and the Potency was inconclusive: 44.7 µM [inhibitor, single point].
In the case of O=Cc1ccc(-c2ccc(Cl)cc2Cl)[nH]1, the Potency is reported as “inactive”.
CCOc1ccccc1N(CC)C(=O)c1cc2c(=O)[nH]c3ccc(C)cc3c2s1 was tested, and the Potency was inconclusive: 22.4 µM [inhibitor, single point].
In the case of CCNc1nc(NC(C)C)nc(N(C#N)CCOc2ccc(Cl)cc2Cl)n1, the Potency is reported as inconclusive: 46.5 µM [inhibitor, partial curve, poor fit].
In the case of COc1ccc(-n2cc(-c3ccccc3)c3c(NN4CCOCC4)ncnc32)cc1, the Potency is reported as inconclusive: 50.1 µM [inhibitor, single point].
CCC(CO)Oc1cc(NCc2ccccn2)c2ncn(C(C)C)c2c1 (stereo not drawn) was tested, and the Potency was inconclusive: 50.1 µM [inhibitor, single point].
For O=c1ccc2[n+]([O-])c3ccc(O)cc3oc-2c1, the Potency was inconclusive: 23.3 µM [inhibitor, partial curve].
With Cc1ccc(N(C(=O)c2snc(C(N)=O)c2N)C(C(=O)NC2CCCC2)c2ccco2)cc1 (stereo not drawn) the Potency was inconclusive: 23.3 µM [inhibitor, full curve].
Cc1ncc(CO)c(/C=N/NC(=S)Nc2ccc(C(C)C)cc2)c1O was tested, and the Potency was inconclusive: 58.5 µM [inhibitor, single point].
For COc1ccc(OC)c(/C=N/c2oc(-c3ccco3)c(-c3ccco3)c2C#N)c1, the Potency was “inactive”.
For CCOC(=O)CN1C(=O)C2Cc3ccccc3CN2C1=S (stereo not drawn), the Potency was inconclusive: 52.1 µM [inhibitor, single point].
CC(C)c1ccc(C2c3c(-c4ccccc4O)n[nH]c3C(=O)N2Cc2ccncc2)cc1 (stereo not drawn) was tested, and the Potency was active: 15.8 µM.
In the case of COc1ccc(N(Cc2ccccc2)S(=O)(=O)c2cc(C(=O)O)ccc2Cl)cc1, the Potency is reported as inconclusive: 58.5 µM [inhibitor, single point].
With COc1cc(/C=C2/SC(=S)NC2=O)ccc1OS(=O)(=O)c1ccc(C)cc1 the Potency was inconclusive: 58.5 µM [inhibitor, single point].
For O=C(C1CCCN(Cc2cccnc2)C1)N1CCCCC1 (stereo not drawn), the Potency was “inactive”.
With Cc1cc(C)c(C#N)c(SCc2[nH]nc3c2C(c2ccccc2)C(C#N)=C(N)O3)n1 (stereo not drawn) the Potency was inconclusive: 52.1 µM [inhibitor, single point].
In the case of CS(=O)(=O)c1ccc(Cl)c(NC(=O)CCl)c1, the Potency is reported as “inactive”.
In the case of COc1cc(NS(=O)(=O)c2ccc(NC(=S)NC(=O)/C=C/c3ccc(F)cc3)cc2)ncn1, the Potency is reported as active: 6.56 µM.
With COc1cc2c(cc1OC)C(COc1ccc3c(C)cc(=O)oc3c1)N(C(=O)c1ccccc1C)CC2 (stereo not drawn) the Potency was inconclusive: 63.1 µM [inhibitor, single point].
With CC(=O)N1CCc2c(sc3c2c(=O)n(Cc2ccccc2)c(=O)n3Cc2cc(C)ccc2C)C1 the Potency was inconclusive: 44.7 µM [inhibitor, partial curve, poor fit].
In the case of Cc1ccc(NC2=Nc3ccccc3N3C2=Nc2c(c(C)nn2-c2ccccc2)C3c2ccc(O)c(O)c2)cc1 (stereo not drawn), the Potency is reported as inconclusive: 23.3 µM [inhibitor, partial curve, poor fit].
O=C(NC1CCCC1)C(c1ccccc1F)N(C(=O)Cc1cccs1)c1ccc2c(c1)OCCO2 (stereo not drawn) was tested, and the Potency was inconclusive: 2.33 µM [inhibitor, full curve, poor fit].
With COC(=O)N1CCCc2cc(S(=O)(=O)NCc3ccccc3)ccc21 the Potency was “inactive”.
With N[C@@H](Cc1cc(I)c(Oc2ccc(O)c(I)c2)c(I)c1)C(=O)O the Potency was inconclusive: 50.1 µM [inhibitor, single point].
With COc1ccc(-c2noc(CCC(=O)NCCCN3CCN(c4ccccc4F)CC3)n2)cc1 the Potency was “inactive”.
For COc1cc(OC)c(NC(=O)c2ccc3c(SCC(=O)O)c4c(nc3c2)CCCC4)cc1Cl, the Potency was inconclusive: 52.1 µM [inhibitor, partial curve].
For COc1ccc(Cn2cc3c(-c4ccc(F)cc4)nnc-3c3cc(OC)c(OC)cc32)cc1, the Potency was inconclusive: 50.1 µM [inhibitor, single point].
With Cc1ccc(CNC(=O)c2cc3c(=O)n(Cc4ccco4)ccc3nc2C)cc1 the Potency was “inactive”.
With O=C(O)/C(=C\c1ccc(F)cc1)c1ccc(-c2ccccc2)cc1 the Potency was inconclusive: 50.1 µM [inhibitor, single point].
For CCOC(=O)c1ccc(N2C(=O)c3n[nH]c(-c4ccco4)c3C2c2cccc(OC)c2)cc1 (stereo not drawn), the Potency was inconclusive: 39.8 µM [inhibitor, partial curve].
For CC(C)=CCC/C(C)=C/CNC(=O)C[C@H]1C[C@H](C(=O)N(C(C)C)C(C)C)[C@@]2(C)c3[nH]c4cc(CCC(=O)N(C)C)ccc4c3CCN2C1=O, the Potency was inconclusive: 15.8 µM [inhibitor, full curve, poor fit].
Cc1ccc(C)c(NC(=O)Nc2cc3c(cc2N2CCCCC2)n(C)c(=O)n3C)c1 was tested, and the Potency was inconclusive: 44.7 µM [inhibitor, partial curve, poor fit].
For CCN(CCO)c1ncnc2c1sc1nc(C(C)C)c3c(c12)CC(C)(C)OC3, the Potency was inconclusive: 5.85 µM [inhibitor, full curve].
For Cc1ccc(S(=O)(=O)Oc2ccc3c(c2)O/C(=C\c2cccnc2)C3=O)cc1, the Potency was inconclusive: 20.7 µM [inhibitor, full curve].
With O=S(=O)(c1ccc(NC(=S)NN=Cc2ccccc2O)cc1)N1CCCCC1 the Potency was active: 46.5 µM.
CCOc1ccc(C(=O)N2CC(=O)Nc3ccc(C)cc3C2c2ccc(F)cc2)cc1OCC (stereo not drawn) was tested, and the Potency was inconclusive: 50.1 µM [inhibitor, single point].
CCc1cccc(C)c1Nc1c(-c2ccc(F)cc2)nc2sccn12 was tested, and the Potency was active: 39.8 µM.
With Oc1ccc2ccccc2c1/C=N/c1nccs1 the Potency was “inactive”.
CC(C)C[C@H]1CN([C@@H](Cc2ccc(O)cc2)CN2CCC[C@@H]2CN2C(=O)C(=O)NC[C@@H]2Cc2ccccc2)C(=O)C(=O)N1CC1CCCCCC1 was tested, and the Potency was inconclusive: 44.7 µM [inhibitor, partial curve, poor fit].
With CC(=O)c1cccc(NC(=O)C(C)OC(=O)CCCN=C2NS(=O)(=O)c3ccccc32)c1 (stereo not drawn) the Potency was inconclusive: 23.3 µM [inhibitor, single point].
NC(=O)c1ccccc1NCC(=O)c1ccc(Cl)cc1 was tested, and the Potency was active: 52.1 µM.
In the case of Nc1ccc(C(=O)NN2C(=O)[C@H](Cl)C2c2ccc(Cl)cc2)cc1 (stereo partly drawn), the Potency is reported as inconclusive: 41.4 µM [inhibitor, partial curve].
Further: nearly all actives have a fitted effect of over 65% in size.
Potency means the concentration at half of the fitted maximal effect; tags describe the fitted curve by direction and shape.
